Assay results: paper PMC6042961
Results are given in words; binding and its absence hold for the method and conditions named. In cells and extracts the contact can be indirect. Some results given as binding are weak or reduced against the parent protein; the word gives no strength. Tags and fused reporters may be left off the sequences shown.

Key:
Assay in all cases: co-IP; lysates in 1% Triton X-100, 150 mM NaCl, 50 mM Tris-HCl pH 7.5; anti-HA or anti-V5 magnetic beads 1 hr at 4°C; wash with 300 mM NaCl; western blot; HEK293T cells (wild type, ADAM17 KO, FRMD8 KO, or iRhom1/2 DKO reconstituted with iRhom2^WT-3xHA; with or without 200 nM PMA for 30 min)
[1] = target: T1, human iRhom2^Δ201-300-3xHA (human) (UniProt Q6PJF5)
T1 sequence: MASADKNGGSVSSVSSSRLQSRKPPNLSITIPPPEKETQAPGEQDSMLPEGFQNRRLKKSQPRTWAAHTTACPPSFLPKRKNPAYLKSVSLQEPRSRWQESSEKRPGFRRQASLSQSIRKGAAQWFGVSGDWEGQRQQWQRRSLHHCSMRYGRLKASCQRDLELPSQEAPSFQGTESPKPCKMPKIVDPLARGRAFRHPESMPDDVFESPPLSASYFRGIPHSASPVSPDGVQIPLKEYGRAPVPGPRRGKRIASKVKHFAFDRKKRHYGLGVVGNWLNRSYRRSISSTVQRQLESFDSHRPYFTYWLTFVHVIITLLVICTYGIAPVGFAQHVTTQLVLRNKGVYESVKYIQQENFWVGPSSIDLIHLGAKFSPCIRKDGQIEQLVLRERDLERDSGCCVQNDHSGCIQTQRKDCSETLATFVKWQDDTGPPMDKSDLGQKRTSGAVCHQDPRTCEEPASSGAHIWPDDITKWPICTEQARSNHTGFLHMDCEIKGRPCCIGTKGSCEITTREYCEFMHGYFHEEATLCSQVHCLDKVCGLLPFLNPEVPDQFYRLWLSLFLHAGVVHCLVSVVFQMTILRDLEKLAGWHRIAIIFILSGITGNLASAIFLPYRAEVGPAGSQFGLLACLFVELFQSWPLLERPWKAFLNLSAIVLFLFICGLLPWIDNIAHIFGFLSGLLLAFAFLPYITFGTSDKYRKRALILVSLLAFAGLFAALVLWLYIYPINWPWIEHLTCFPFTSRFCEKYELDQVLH

[2] = target: T2, human iRhom1-3xHA (human) (UniProt Q96CC6)
T2 sequence: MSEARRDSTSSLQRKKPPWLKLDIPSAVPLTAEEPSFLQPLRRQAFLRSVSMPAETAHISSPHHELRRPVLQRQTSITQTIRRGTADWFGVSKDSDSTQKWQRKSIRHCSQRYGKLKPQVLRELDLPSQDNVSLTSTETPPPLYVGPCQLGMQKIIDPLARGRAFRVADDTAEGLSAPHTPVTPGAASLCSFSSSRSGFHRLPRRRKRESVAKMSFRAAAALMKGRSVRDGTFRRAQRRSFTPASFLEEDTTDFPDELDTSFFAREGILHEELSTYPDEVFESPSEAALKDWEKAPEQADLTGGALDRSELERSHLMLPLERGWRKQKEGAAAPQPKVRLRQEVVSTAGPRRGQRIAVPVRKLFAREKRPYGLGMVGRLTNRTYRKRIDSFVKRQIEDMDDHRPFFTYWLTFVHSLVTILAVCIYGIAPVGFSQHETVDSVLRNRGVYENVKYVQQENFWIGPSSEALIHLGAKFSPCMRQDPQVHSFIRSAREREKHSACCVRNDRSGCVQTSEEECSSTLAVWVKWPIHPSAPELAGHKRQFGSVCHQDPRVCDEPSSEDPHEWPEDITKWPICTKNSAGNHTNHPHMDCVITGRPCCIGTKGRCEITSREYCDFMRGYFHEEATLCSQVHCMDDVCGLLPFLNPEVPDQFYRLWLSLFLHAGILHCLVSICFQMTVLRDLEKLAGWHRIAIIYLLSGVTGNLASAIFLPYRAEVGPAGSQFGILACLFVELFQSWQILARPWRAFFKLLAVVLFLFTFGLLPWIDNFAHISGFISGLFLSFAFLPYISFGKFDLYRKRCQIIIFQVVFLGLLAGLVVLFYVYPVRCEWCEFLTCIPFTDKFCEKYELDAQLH

[3] = target: T3, mouse iRhom2^WT-3xHA (mouse) (UniProt Q80WQ6)
T3 sequence: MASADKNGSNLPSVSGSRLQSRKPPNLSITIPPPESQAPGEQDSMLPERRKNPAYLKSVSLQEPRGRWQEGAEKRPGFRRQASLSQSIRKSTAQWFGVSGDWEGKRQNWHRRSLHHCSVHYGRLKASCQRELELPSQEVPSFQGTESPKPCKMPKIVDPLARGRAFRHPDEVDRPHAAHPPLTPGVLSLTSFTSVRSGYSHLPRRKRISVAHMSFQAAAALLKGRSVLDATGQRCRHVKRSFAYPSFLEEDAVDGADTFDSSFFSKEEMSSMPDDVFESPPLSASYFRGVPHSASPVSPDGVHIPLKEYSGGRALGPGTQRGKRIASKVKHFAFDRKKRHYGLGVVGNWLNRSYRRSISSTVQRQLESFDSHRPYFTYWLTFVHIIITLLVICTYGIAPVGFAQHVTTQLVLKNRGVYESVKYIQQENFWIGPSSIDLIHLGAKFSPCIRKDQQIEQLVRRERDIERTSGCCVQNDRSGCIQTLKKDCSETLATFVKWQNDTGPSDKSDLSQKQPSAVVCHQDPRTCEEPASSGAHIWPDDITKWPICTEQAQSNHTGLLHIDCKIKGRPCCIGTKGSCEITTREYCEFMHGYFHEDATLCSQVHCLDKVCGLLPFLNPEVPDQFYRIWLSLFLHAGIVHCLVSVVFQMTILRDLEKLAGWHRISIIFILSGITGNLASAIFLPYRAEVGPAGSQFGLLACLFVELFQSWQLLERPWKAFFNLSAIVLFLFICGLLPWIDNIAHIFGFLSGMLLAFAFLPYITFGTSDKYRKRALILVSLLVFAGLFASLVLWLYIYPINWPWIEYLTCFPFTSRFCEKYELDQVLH

binding [1]: no binding | binding [2]: binds | binding [3]: binds
B1: human FRMD8-V5 (protein, UniProt Q9BZ67-1 1-464)
chain: MDGTEGSAGQPGPAERSHRSSVSSVGARAADVLVYLADDTVVPLAVENLPSLSAHELHRAVREVLQLPDIALDVFALWLVSPLLEVQLKPKHQPYKLGRQWPELLLRFTSAPDDDVAMDEPFLQFRRNVFFPKRRELQIHDEEVLRLLYEEAKGNVLAARYPCDVEDCEALGALVCRVQLGPYQPGRPAACDLREKLDSFLPAHLCKRGQSLFAALRGRGARAGPGEQGLLNAYRQVQEVSSDGGCEAALGTHYRAYLLKCHELPFYGCAFFHGEVDKPAQGFLHRGGRKPVSVAISLEGVHVIDSREKHVLLGLRFQELSWDHTSPEEEEPILWLEFDGDSEGTPVNKLLKIYSKQAELMSSLIEYCIELSQAAEPAGPQDSATGSPSDPSSSLAPVQRPKLRRQGSVVSSRIQHLSTIDYVEDGKGIRRVKPKRTTSFFSRQLSLGQGSYTVVQPGDSLEQG
